According to patent publication US10000498B2, “Selective proton coupled folate transporter and folate receptor, and GARFTase inhibitor compounds and methods of using the same” (Duquesne University of the Holy Spirit, priority 2008, dated 2018):

Tested on: R2-hPCFT#4 cells (hPCFT-expressing R2 CHO)
Conditions: comparing growth inhibition of R2-hPCFT#4 and pC43-10 cells

Nc1nc(N)c2nc(CNc3ccc(C(=O)N[C@@H](CCCNC(=O)c4ccccc4C(=O)O)C(=O)O)cc3)cnc2n1 [PT523]
Selectivity between hRFC and hPCFT: completely selective in its effects toward hRFC over hPCFT
